For 70 molecules, z-score results are on record in PubChem BioAssay AID488969 (Vanderbilt High Throughput Screening Facility, 2010).

Each structure is given as a SMILES string. In all, about 110,000 compounds were measured (“z-score”: median about -0.1, highest 2% from about 2 on). Some of the results follow.

The test deals with Metabotropic glutamate receptor 8 (Rattus norvegicus) (UniProt P70579). The test is described as follows: mGluR8 Gi/Go-coupled signaling modulation – cell-based, rat, thallium flux, HTS, primary screen (AID 488969). Conditions: HEK293 rat mGluR8, GIRK (G protein-gated inwardly rectifying potassium channel) thallium flux, FluoZin2; at 10 µM; stronger effect = higher value; submaximal glutamate (EC20) added with thallium.
Sequence of UniProt P70579 (P70579 whole entry, looked up): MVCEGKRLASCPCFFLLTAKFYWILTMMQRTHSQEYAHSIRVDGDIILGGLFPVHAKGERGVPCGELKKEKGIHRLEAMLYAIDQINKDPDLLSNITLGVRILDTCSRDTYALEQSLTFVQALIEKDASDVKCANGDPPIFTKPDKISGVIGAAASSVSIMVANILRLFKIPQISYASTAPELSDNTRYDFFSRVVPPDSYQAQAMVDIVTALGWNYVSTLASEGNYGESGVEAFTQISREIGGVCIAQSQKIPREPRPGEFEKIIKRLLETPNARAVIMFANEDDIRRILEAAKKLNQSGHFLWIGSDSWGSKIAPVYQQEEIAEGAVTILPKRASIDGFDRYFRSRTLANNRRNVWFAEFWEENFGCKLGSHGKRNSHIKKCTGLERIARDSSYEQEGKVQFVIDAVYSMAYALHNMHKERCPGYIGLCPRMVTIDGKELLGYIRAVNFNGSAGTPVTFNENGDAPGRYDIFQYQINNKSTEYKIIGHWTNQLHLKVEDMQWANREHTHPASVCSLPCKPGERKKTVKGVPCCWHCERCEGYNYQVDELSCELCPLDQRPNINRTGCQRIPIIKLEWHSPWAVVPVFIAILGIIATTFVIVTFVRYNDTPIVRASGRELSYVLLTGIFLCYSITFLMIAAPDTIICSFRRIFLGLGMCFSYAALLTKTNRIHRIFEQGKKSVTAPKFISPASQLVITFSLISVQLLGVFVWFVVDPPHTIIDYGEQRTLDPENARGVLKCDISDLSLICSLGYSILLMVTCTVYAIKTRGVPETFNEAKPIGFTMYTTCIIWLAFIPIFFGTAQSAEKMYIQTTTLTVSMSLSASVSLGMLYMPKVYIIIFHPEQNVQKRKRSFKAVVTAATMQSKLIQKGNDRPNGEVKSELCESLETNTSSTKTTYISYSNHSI
`CCOC(=O)c1sc2nc(C)c3c(c2c1N)CC(C)(C)OC3` came in with a z-score of 0.384.
The figure for `Cc1ccc(Cn2c(SCC(C)C)nc3c2c(=O)n(C)c(=O)n3C)cc1` is -0.493; for `CCCCNC(=O)C1CC(=O)N(C2CCCC2)C1` (stereo not given) it is -0.189.
Regarding `CC(C)OCCCNC(=O)C1CC(=O)N(C2CCCCCCC2)C1` (stereo not given), the z-score was found to be 0.293.
The result for `Clc1cccc(Cl)c1/C=C/c1nc2ccccc2[nH]1` reads 0.0702; that for `COc1ccc(CCNC(=O)c2sc(=S)n(C)c2N)cc1`, 0.0297.
The molecule `CCOc1ccc(N(CC(=O)N/N=C/c2cc([N+](=O)[O-])ccc2Cl)S(C)(=O)=O)cc1` registered a z-score of -0.365.
`CN(C)CCOC(=O)c1cccc(Br)c1` came in with a z-score of -0.158.
The result for `Cc1ccc(S(=O)(=O)N/N=C/c2ccc(C(=O)O)cc2)cc1` reads -0.132.
`O=C(O)c1ccccc1C(=O)Nc1nccs1` returned a z-score of -0.213.
On to `Cc1ccc(C(c2c(C)[nH][nH]c2=O)c2c(C)[nH][nH]c2=O)cc1[N+](=O)[O-]`, for which the z-score was -0.0186.
The result for `CCn1cc(C(=O)N2CCOCC2)c(=O)c2cc(S(=O)(=O)N(C)C)ccc21` reads -0.0559.
The figure for `O=C(CSc1n[nH]c(-c2ccccc2Br)n1)NCCN1C(=O)CSC1=O` is 0.0185.
The figure for `Cc1cccc(C(=O)NC(=S)Nc2ccc(S(=O)(=O)N3CCN(C)CC3)cc2)c1` is 0.935; for `CCC(Cc1ccccc1)NC(=O)CCn1cccc1` (stereo not given) it is -0.203.
On to `Cc1cnc(NC(=O)CSc2ncn(-c3ccccc3)n2)s1`, for which the z-score is -0.143.
`CCOC(=O)NC(=O)CSc1nnnn1-c1ccc(Cl)cc1` showed a z-score of -0.258.
The result for `CCOC(=O)c1c(NC(NC(C)=O)C(Cl)(Cl)Cl)sc2c1CCCC2` (stereo not given) reads -2.34; that for `O=C(c1ccccc1NS(=O)(=O)c1ccc(Cl)cc1)N1CCc2ccccc21`, -0.000723.
The figure for `FC(F)(F)C1=CC(c2ccc(Br)cc2)=NCCN1` is 0.15.
On to `CC(=C/c1ccc(C(C)C)cc1)/C=N/NC(=O)Cn1nc(C)cc1C`, for which the z-score was -0.122.
In turn, `CCOC(=O)N1CCN(Cc2nc(N)nc(Nc3ccc(C)cc3)n2)CC1` registered a z-score of -0.0413.
Molecule `Cc1cc(Cl)ccc1NC(=O)Nc1c(C)n(-c2ccccc2)c(=O)n1C` displayed a z-score of -0.461.
Molecule `CCCCc1oc2c(c(=O)c1C)C(=O)CC(c1ccccc1)C2` (stereo not given) yielded a z-score of -1.66.
`CCC1CCCCN1CCCNC(=O)COc1cc(=O)n(C)c2ccccc12` (stereo not given) had a z-score of 0.76.
The result for `Cc1cccc(NC(=O)COc2nsnc2N2CCOCC2)c1` reads -1.18; that for `CNC(=O)NC(=S)NC(=O)c1ccc(OC)cc1`, -0.157.
For `COc1ccc(C(=O)COC(=O)C2CCN(S(=O)(=O)c3cccc4cccnc34)CC2)cc1`, the z-score was -0.246.
The result for `Cc1csc(SCCn2c(N3CCOCC3)nc3c2c(=O)[nH]c(=O)n3C)n1` reads -0.532.
Turning to `O=C(Cn1nc(-c2ccc(Cl)cc2)ccc1=O)NCCN1CCOCC1`, the z-score is -0.317.
The result for `Cc1ccc(-n2c(=O)c3sccc3n(CC(=O)NCc3ccco3)c2=O)cc1` reads -1.34; that for `CCn1c(C(=O)N2CCC(C(=O)N3CCN(c4ccccn4)CC3)CC2)cc2sccc21`, 0.181; that for `CS(=O)(=O)N(CCc1ccccc1)CC(=O)N1CCN(Cc2ccc3c(c2)OCO3)CC1`, -0.238.
The result for `Cc1ccc(N2C(=O)CC(Sc3nc(-c4ccccc4)c4cc(Cl)ccc4n3)C2=O)c(C)c1` (stereo not given) reads -0.386; that for `O=C(O)Cc1ccc(NC(=O)C2CC=CCC2C(=O)O)cc1` (stereo not given), -0.373; that for `CN1CCN(C(=O)NC2CCCCC2)CC1`, -0.173.
The figure for `COCCNC(=O)C(c1ccc(C)o1)N(Cc1ccc(F)cc1)C(=O)Cn1nnc2ccccc21` (stereo not given) is 1.39.
Take `CC1(C)CC(=O)C(C(=S)Nc2ccccc2)=C(NCCN2CCOCC2)C1`: the z-score is -0.0406.
The result for `COc1ccc(C2C(C#N)=C(C)NC3=C2C(=O)c2ccccc23)cc1` (stereo not given) reads -0.286; that for `COc1c2ccoc2nc2c(OC)c(OCC(O)C(C)(C)O)ccc12` (stereo not given), -0.185; that for `N#C/C(=C(/O)CN1CCOCC1)c1nc2ccccc2s1`, 0.136.
The figure for `Cc1ccc2c(c1)-c1cc(C)nn1C(c1ccc3c(c1)OCO3)N2` (stereo not given) is -0.166; for `O=C(Nc1cc(=O)[nH]c2ncnn12)c1ccccc1Cl` it is -0.632.
The molecule `CC1=CC(=NOC(=O)c2cccc([N+](=O)[O-])c2)C=C(C)C1=O` returned a z-score of 0.0996.
For `Cc1ccc(C(=O)NC(=S)Nc2cccc(NC(=O)c3ccccc3Cl)c2)cc1[N+](=O)[O-]`, the z-score worked out at 0.277.
As to `CC1(C)CC(=O)C2=C(C1)N(c1ccc(F)cc1)C(=O)CC2c1ccccc1` (stereo not given), the z-score was -0.242.
For `COc1ccc(C(=O)NC(=S)NCc2ccco2)cc1OC`, the z-score turned out to be 0.277.
The result for `CN1/C(=C\C(=O)c2cccnc2Cl)C(C)(C)c2ccccc21` reads -0.384.
The result for `CCOC(=O)c1ccc(NC(=O)CN2CCc3ccccc3C2)cc1` reads -0.455.
The figure for `CCCc1cc(C(=O)NCc2ccco2)no1` is -0.204; for `CC1=C(CC(=O)c2ccccc2)C(=O)c2ccccc2C1=O` it is -0.213.
Turning to `COc1ccc(-c2noc(CCC(=O)Nc3cc(OC)ccc3OC)n2)cc1`, the z-score was 0.948.
The result for `Cn1cnnc1SC1c2cccc3cccc(c23)C1NS(=O)(=O)c1ccc(Cl)cc1` (stereo not given) reads 0.152.
As for `O=C(NNC1=NCCC1)c1cccc(S(=O)(=O)N2CCCCC2)c1`, the z-score amounted to 0.0465.
The figure for `Cc1cc(-c2ccc(N3CCOCC3)cc2)nc2ccccc12` is -0.464.
Take `O=C(Nc1nn(Cc2ccccc2F)cc1Br)c1cccs1`: the z-score was -0.929.
The figure for `Cc1ccc(NC(=S)NC2CCN(Cc3ccccc3)CC2)c(C)c1` is 0.353.
`CC(C)n1c2ccccc2c2nc3ccccc3nc21` registered a z-score of -0.47.
`Cn1c(SCC(N)=O)nnc1C1CCN(S(=O)(=O)c2ccccc2C(F)(F)F)CC1` returned a z-score of -0.191.
The figure for `CCC(=O)N1N=C(c2ccc(NS(C)(=O)=O)cc2)CC1c1ccc(C)cc1` (stereo not given) is -0.3; for `Cc1cc(C)nc(NS(=O)(=O)c2ccc(NC(=O)CN3C(=O)S/C(=C\c4ccccc4)C3=O)cc2)n1` it is -0.203; for `COC(=O)C(C)Sc1nnc(Cc2cc(=O)[nH]c(=O)[nH]2)n1-c1cc(C)ccc1C` (stereo not given) it is 0.0555.
The figure for `COc1ccc(C2/C(=C(/O)c3ccc(C)cc3)C(=O)C(=O)N2C)cc1` (stereo not given) is -0.11; for `O=c1/c(=C/c2ccccn2)sc2nc3ccccc3n12` it is 0.539.
The result for `CCCCn1c(N2CCC(Cc3ccccc3)CC2)nc2c1c(=O)[nH]c(=O)n2C` reads 0.326; that for `CCOC(=O)c1c(NC(C)=O)sc2c(OC(C)=O)cccc12`, 0.184.
In turn, `O=C(CN1C(=O)c2cccc3cccc1c23)NCc1cccnc1` came in with a z-score of -0.0427.
In the case of `S=c1[nH]nc(-c2ccccc2)o1`, the z-score was -0.0494.
The molecule `Cc1ccc(N(Cc2ccccc2F)S(C)(=O)=O)cc1C` gave a z-score of 0.0251.
The result for `CCCc1nc(SCC(=O)N2CCC(Cc3ccccc3)CC2)c2c(=O)n(C)c(=O)n(C)c2n1` reads 1.98.
